The supplement of paper PMC3334620
Whole data set: some 33,000 sequences, median “E-score (-0.5 to 0.5)” near -0.043, cut for the highest 2% near 0.37. This is one part of the list.

Each sequence was assayed against T1, Upc2 (UniProt Q12151) (assay: PBM E-score (8-mer binding enrichment) (E-score (-0.5 to 0.5)); higher = stronger / more preferred TF binding; most listed sequences are background and not binding sites). Settings: protein concentration: 200 nM; construct: GST-full length.
T1 sequence: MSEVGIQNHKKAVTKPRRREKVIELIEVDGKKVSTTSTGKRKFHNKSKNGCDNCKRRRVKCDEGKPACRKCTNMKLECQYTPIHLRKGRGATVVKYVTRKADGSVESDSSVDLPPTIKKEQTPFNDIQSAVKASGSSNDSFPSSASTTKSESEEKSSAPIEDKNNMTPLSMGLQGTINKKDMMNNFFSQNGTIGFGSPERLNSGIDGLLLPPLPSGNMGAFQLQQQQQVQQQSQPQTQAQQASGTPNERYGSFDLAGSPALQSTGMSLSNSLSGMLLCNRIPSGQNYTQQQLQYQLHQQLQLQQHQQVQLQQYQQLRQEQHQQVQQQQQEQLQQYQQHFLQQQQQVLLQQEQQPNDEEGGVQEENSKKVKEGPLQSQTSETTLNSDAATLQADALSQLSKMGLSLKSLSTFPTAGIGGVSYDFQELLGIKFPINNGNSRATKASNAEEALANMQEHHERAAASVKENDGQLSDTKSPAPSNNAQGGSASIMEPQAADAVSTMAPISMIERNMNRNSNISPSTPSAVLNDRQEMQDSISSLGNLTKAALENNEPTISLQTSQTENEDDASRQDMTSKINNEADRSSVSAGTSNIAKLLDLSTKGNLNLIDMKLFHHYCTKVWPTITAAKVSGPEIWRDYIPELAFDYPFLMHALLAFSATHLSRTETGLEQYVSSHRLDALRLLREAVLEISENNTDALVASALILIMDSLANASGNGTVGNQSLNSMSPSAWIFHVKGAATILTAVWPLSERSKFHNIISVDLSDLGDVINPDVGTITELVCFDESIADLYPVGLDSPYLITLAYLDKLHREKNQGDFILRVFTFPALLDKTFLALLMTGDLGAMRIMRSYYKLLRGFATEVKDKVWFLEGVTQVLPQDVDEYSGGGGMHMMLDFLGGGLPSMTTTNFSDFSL
Outline: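 Detection of bound protein used fluorescent anti-GST, with scans normalised by masliner. The proteins were GST-tagged yeast transcription factors applied at about 100-200 nM to universal all-10-mer Agilent arrays made double-stranded by primer extension. Each ungapped eight-base word, pooled with its reverse complement, was scored with an E-score from the Universal PBM Analysis Suite.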
For ATTCGTCA, the “PBM E-score” value was -0.00206. With ACCCTGAC the “PBM E-score” value was -0.296. With GGATCTGA the “PBM E-score” value was -0.0319. For AGTATCTA, the “PBM E-score” value was -0.0866. CCTTAGGC was tested, and the “PBM E-score” value was -0.0987. With AGTGTGCG the “PBM E-score” value was -0.0036. CCGCTGTA was tested, and the “PBM E-score” value was -0.259. With CGCCCACG the “PBM E-score” value was -0.0104. With CAATCGCA the “PBM E-score” value was 0.0411. ACGACTCA was tested, and the “PBM E-score” value was 0.29. With GTCACTTA the “PBM E-score” value was 0.0983. In the case of ATGGGCCG, the “PBM E-score” value is reported as -0.21. For TTAATTAA, the “PBM E-score” value was -0.0855. For GACGCATC, the “PBM E-score” value was -0.014. With CGCCTAGA the “PBM E-score” value was 0.139. For CATAGGCA, the “PBM E-score” value was -0.296. In the case of GGGAAGTA, the “PBM E-score” value is reported as -0.108. TCCCCGAA was tested, and the “PBM E-score” value was -0.23. In the case of GGTCCTAA, the “PBM E-score” value is reported as 0.0427. In the case of GTTGCAGA, the “PBM E-score” value is reported as -0.126. With TTCTACAA the “PBM E-score” value was -0.0672. With TCCCTTAA the “PBM E-score” value was -0.111. With AAGATTAT the “PBM E-score” value was -0.0246. For CCGGGTCC, the “PBM E-score” value was -0.0974. For TAATACAA, the “PBM E-score” value was 0.0208. In the case of GATTATTA, the “PBM E-score” value is reported as -0.0512. In the case of AATTTAGA, the “PBM E-score” value is reported as 0.00026. With AAATCCCA the “PBM E-score” value was -0.0654. In the case of CCAACCGC, the “PBM E-score” value is reported as -0.152. For GGTGGCTA, the “PBM E-score” value was -0.169. In the case of TCCGCCCA, the “PBM E-score” value is reported as -0.166. For TAGGTATA, the “PBM E-score” value was 0.205. AAATATGC was tested, and the “PBM E-score” value was 0.0217. With GAATGGAC the “PBM E-score” value was -0.171. For CCGTATTA, the “PBM E-score” value was 0.296. For AGGCGAAT, the “PBM E-score” value was -0.00707. For GGTACGAA, the “PBM E-score” value was 0.459. GCTCACAC was tested, and the “PBM E-score” value was -0.0356. With GAGATGCA the “PBM E-score” value was 0.0212. In the case of ATGCTGGG, the “PBM E-score” value is reported as -0.16. In the case of AATTTACG, the “PBM E-score” value is reported as 0.335. ACCAGTCG was tested, and the “PBM E-score” value was 0.107. For AAGTCGGC, the “PBM E-score” value was -0.136. CAGAGAAA was tested, and the “PBM E-score” value was -0.177. ATCGTGTC was tested, and the “PBM E-score” value was 0.131. In the case of ATTAATGA, the “PBM E-score” value is reported as 0.0119. For ACGTGAGG, the “PBM E-score” value was -0.0389. For ATCAGAGG, the “PBM E-score” value was -0.198. AAACAATC was tested, and the “PBM E-score” value was -0.0625. CAATCCCA was tested, and the “PBM E-score” value was -0.248. With ATACATGG the “PBM E-score” value was -0.124. For CGCTTGAA, the “PBM E-score” value was 0.171. For ACAGGCGT, the “PBM E-score” value was -0.185. ATCTTTAA was tested, and the “PBM E-score” value was 0.164. With ACTTATAT the “PBM E-score” value was 0.169. AGGGGCGC was tested, and the “PBM E-score” value was -0.17. With AAGGAGCC the “PBM E-score” value was -0.281. With AAACTTTC the “PBM E-score” value was -0.21. CCATGCTC was tested, and the “PBM E-score” value was -0.176. In the case of CAAAAGAA, the “PBM E-score” value is reported as 0.0597. CTCTGTGC was tested, and the “PBM E-score” value was -0.171. With CAAGATTA the “PBM E-score” value was -0.0496. CTTGTCTC was tested, and the “PBM E-score” value was -0.218. AAAGCCCC was tested, and the “PBM E-score” value was -0.0844. CAAAGCAG was tested, and the “PBM E-score” value was -0.0805. AGGAGGAG was tested, and the “PBM E-score” value was -0.178. For CTTTGATA, the “PBM E-score” value was -0.0233. In the case of CGGTGTTC, the “PBM E-score” value is reported as 0.0385. In the case of CAACTGTA, the “PBM E-score” value is reported as 0.0347. With CCACTTCG the “PBM E-score” value was 0.0558. With ATTGTTTC the “PBM E-score” value was 0.0235. In the case of ATGTCAGG, the “PBM E-score” value is reported as -0.331. In the case of CCCGAGGA, the “PBM E-score” value is reported as 0.0277. In the case of CACCTAAC, the “PBM E-score” value is reported as -0.188. With CTGGTTTA the “PBM E-score” value was 0.031. In the case of TCTCGACA, the “PBM E-score” value is reported as -0.0591. For AGTACACA, the “PBM E-score” value was 0.143. For GCTTTCGA, the “PBM E-score” value was -0.144. In the case of CAGCTACC, the “PBM E-score” value is reported as -0.263. With ATTGCTCA the “PBM E-score” value was -0.0871. For CAATCCGG, the “PBM E-score” value was -0.0955. With ATTTGCTC the “PBM E-score” value was -0.0784. With AGATTGTG the “PBM E-score” value was -0.206. In the case of CGACGCAG, the “PBM E-score” value is reported as 0.0461. For TCCCGTAA, the “PBM E-score” value was 0.265. AGAGAAAG was tested, and the “PBM E-score” value was -0.129.
